Hit rate of the full screen: of about 310,000 compounds, about 14,000 (4.5%) showed an effect of 50% or more. The effect is printed as a negative number. The list shows a part of the results. Where a SMILES comes first, the peptide text is derived from it. [ ]: non-standard residue; d: D form. The star is where a group is joined. ξ: configuration not given here. Boc = CC(C)(C)OC(=O)*; NHBn = c1ccc(CN*)cc1; ξV = CC(C)C(N)C(=O)O
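Note: peak tail current of the secondary pulse compared with the same well before compound.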

Chain of human ether-à-go-go-related gene (hERG) potassium channel (Q12809 whole entry, looked up): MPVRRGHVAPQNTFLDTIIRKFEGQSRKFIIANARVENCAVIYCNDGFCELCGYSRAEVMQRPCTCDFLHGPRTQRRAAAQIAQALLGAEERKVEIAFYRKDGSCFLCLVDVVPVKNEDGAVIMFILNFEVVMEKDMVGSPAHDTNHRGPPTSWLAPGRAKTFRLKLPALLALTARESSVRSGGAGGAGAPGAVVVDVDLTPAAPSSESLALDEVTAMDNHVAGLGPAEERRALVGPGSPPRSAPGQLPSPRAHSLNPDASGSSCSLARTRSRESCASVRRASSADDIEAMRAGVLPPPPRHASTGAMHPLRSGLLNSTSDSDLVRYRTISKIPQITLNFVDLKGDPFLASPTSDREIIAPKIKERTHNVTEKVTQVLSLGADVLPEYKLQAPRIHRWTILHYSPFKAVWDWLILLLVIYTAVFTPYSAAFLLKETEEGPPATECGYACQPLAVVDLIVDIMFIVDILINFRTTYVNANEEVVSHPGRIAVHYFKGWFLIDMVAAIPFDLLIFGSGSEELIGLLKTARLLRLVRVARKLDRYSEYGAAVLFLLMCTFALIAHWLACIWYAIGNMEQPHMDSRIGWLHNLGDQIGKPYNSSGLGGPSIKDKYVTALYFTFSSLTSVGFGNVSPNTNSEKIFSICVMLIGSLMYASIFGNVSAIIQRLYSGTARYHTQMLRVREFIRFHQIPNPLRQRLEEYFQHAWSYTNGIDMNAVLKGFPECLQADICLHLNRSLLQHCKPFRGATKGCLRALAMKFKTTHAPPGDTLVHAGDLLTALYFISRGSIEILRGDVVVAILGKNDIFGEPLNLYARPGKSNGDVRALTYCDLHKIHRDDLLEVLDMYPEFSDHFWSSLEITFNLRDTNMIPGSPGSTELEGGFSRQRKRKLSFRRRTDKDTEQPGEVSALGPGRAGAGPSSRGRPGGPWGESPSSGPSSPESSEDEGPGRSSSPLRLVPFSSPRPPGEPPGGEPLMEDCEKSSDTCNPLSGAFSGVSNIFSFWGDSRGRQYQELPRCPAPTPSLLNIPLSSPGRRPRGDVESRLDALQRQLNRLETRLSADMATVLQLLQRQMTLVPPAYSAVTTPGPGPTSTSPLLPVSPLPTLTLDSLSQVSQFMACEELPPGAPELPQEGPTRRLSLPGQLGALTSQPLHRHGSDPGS

The assay addresses human ether-à-go-go-related gene (hERG) potassium channel (human, UniProt Q12809). Nature of the assay: primary screen, population patch clamp on CHO cells stably expressing hERG.
Turning to `C#CCOCCOCCOCCNc1nc(N2CCN(C(=O)[C@H](Cc3ccc(O)cc3)n3cc([C@@H](N)CC(C)C)nn3)CC2)nc(N2CCN(C(=O)[C@H](Cc3cc4ccccc4[nH]3)n3cc([C@@H](N)CC(C)C)nn3)CC2)n1.Cl`, the “hERG current change (%, negative = inhibition) at 10uM” value turned out to be 6.67%. In the case of `Cc1cc(=O)oc2cc(OCC(O)CN3CCN(c4ccccc4)CC3)ccc12.Cl` (centres unmarked), the “hERG current change (%, negative = inhibition) at 10uM” value is recorded as -47.4%. With `C=CCOc1cccc(C2C(C(=O)c3cccs3)=C(O)C(=O)N2Cc2cccnc2)c1` (centres unmarked), the “hERG current change (%, negative = inhibition) at 10uM” value is listed as -1.2%. Take `COc1ncccc1-c1nnn(-c2ccc(Cl)nc2)n1`: the “hERG current change (%, negative = inhibition) at 10uM” value was determined as 3.26%. As for `O=S(=O)(c1ccccc1)c1cccc(S(=O)(=O)N2CCCCC2)c1`, the “hERG current change (%, negative = inhibition) at 10uM” value is given as -8.22%.

With `Cc1c(C(=O)NCc2ccc3c(c2)OCO3)oc2ccccc12`, the “hERG current change (%, negative = inhibition) at 10uM” value is given as -18.1%. `O=C(CSc1nnc(-c2cccnc2)o1)Nc1ccc(Cl)cc1`: the “hERG current change (%, negative = inhibition) at 10uM” value was -1.77%. As to `Cc1oncc1C(=S)Nc1ccccc1`, the “hERG current change (%, negative = inhibition) at 10uM” value is recorded as 6.95%. Regarding `O=C1CCC(=O)c2oc3ccccc3c2N1`, the “hERG current change (%, negative = inhibition) at 10uM” value is reported as 6.16%. Take `COc1cc(F)c(S(=O)(=O)N2CCOc3ccccc32)cc1OC`: the “hERG current change (%, negative = inhibition) at 10uM” value was -5.38%.

In the case of `OCCCCO`, the “hERG current change (%, negative = inhibition) at 10uM” value came to 13.7%. On to `C/C(=N\NC(=O)COc1ccc([N+](=O)[O-])cc1)c1ccco1`, for which the “hERG current change (%, negative = inhibition) at 10uM” value was -28.3%. As to `COc1cc2c(cc1OC)C(C)N(C(C)=O)CC2` (centres unmarked), the “hERG current change (%, negative = inhibition) at 10uM” value is -3.46%. Take `CCOCCCNC(=S)N1CCC(C(=O)c2ccc3c(c2)OCCO3)CC1`: the “hERG current change (%, negative = inhibition) at 10uM” value turned out to be 6.95%.

With `CCOc1ccc(N2C(=O)c3cccnc3C2Nc2ccc(Cl)cc2)cc1` (centres unmarked), the “hERG current change (%, negative = inhibition) at 10uM” value was 11.5%. In the case of `Oc1ccc(/C=C/c2nc(-c3ccccc3O)n(-c3ccccc3)n2)cc1` it was -4.56%; in that of `O=C(NCC1CCCN1S(=O)(=O)c1cccs1)c1cccc(F)c1` (centres unmarked), 8.18%. As to `CCN(CC(=O)Nc1ccc(C(C)=O)cc1)CC(=O)Nc1ccccc1C(F)(F)F`, the “hERG current change (%, negative = inhibition) at 10uM” value is listed as 2.52%. With `Cc1ccc(N(Cc2ccc(C(=O)NN=C3CCN(C)CC3)cc2)S(C)(=O)=O)cc1C`, the “hERG current change (%, negative = inhibition) at 10uM” value was found to be 0.0652%. With `O=C1c2ccc(-c3ccc4c(c3)C(=O)N(CCCO)C4=O)cc2C(=O)N1CCCO`, the “hERG current change (%, negative = inhibition) at 10uM” value is reported as 0.197%. Take `COc1cccc(C2=NOC(C(=O)N3CCc4ccccc4C3)C2)c1` (centres unmarked): the “hERG current change (%, negative = inhibition) at 10uM” value is recorded as -29.1%. Turning to `CCCN1CCN(C(=O)c2cn(CC(C)C)c(=O)c3cc(OC)c(OC)cc23)CC1`, the “hERG current change (%, negative = inhibition) at 10uM” value was -41.1%. Turning to `CC1=C(C(=O)Nc2ccccc2)C(c2cccc([N+](=O)[O-])c2)Nc2nc3ccccc3n21` (centres unmarked), the “hERG current change (%, negative = inhibition) at 10uM” value is reported as 6.45%. Regarding `CCCOc1cccc(C(=O)NCCNC(=O)c2ccco2)c1`, the “hERG current change (%, negative = inhibition) at 10uM” value worked out at 17.7%. As for `Cc1ccccc1Cn1cc(NC(=O)c2nc3ncccn3n2)cn1`, the “hERG current change (%, negative = inhibition) at 10uM” value was -1.56%. With `Cc1cc(NC(=O)CN2CCCCC2)no1.O=C(O)C(=O)O`, the “hERG current change (%, negative = inhibition) at 10uM” value was found to be 18.8%.

On to `Cn1cc(SCC(=O)NCC2CCCO2)c2ccccc21` (centres unmarked), for which the “hERG current change (%, negative = inhibition) at 10uM” value is listed as -3.9%.

Regarding `CN(C)c1ccc(/C=N/n2c(-c3cccnc3)n[nH]c2=S)cc1`, the “hERG current change (%, negative = inhibition) at 10uM” value amounted to 13.8%. As to `O=C(Nc1ccc2oc(=O)ccc2c1)c1ccc(-c2cccc(Cl)c2)o1`, the “hERG current change (%, negative = inhibition) at 10uM” value is 10.2%. In the case of `O=C(Cn1cnc2ccccc2c1=O)Nc1ccc(S(=O)(=O)N2CCCC2)cc1` it was 15.2%; in that of `COc1cc(OC)c(NC(=O)c2ccc3c(SCC(=O)O)c4c(nc3c2)CCCC4)cc1Cl`, 21.7%; in that of `NC(=O)CSc1nnc(-c2ccc(S(=O)(=O)N3CCOCC3)cc2)n1Cc1ccccc1`, -1.42%. With `CC1(c2ccc(Cl)cc2Cl)NC(=O)N(CC(=O)Nc2cccnc2Cl)C1=O` (centres unmarked), the “hERG current change (%, negative = inhibition) at 10uM” value is reported as -0.315%. For `COc1ccc(Cl)cc1NC(=O)C(C)OC(=O)c1ccc(NS(=O)(=O)c2ccc3[nH]c(=O)[nH]c3c2)cc1` (centres unmarked), the “hERG current change (%, negative = inhibition) at 10uM” value stood at 9.32%. As for `Cc1cnc(NC(=O)[C@H](C)N2C(=O)C3CCCCC3C2=O)s1` (some centres unmarked), the “hERG current change (%, negative = inhibition) at 10uM” value turned out to be 14.5%. For `CCn1c(CNC(=O)Cc2ccc(OC)cc2)nnc1SCC(=O)NC1CCCCC1`, the “hERG current change (%, negative = inhibition) at 10uM” value was found to be 8.03%. `Cc1cccc(N2C(S)=C(C#N)C(=O)NC2c2ccco2)c1` (centres unmarked): the “hERG current change (%, negative = inhibition) at 10uM” value is -0.201%. In the case of `COc1ccc(NS(=O)(=O)c2ccc(N3CCOCC3)c(NC(=O)C(C)C)c2)cc1` it was 3.13%; in that of `O=C(Nc1ccccc1C(=O)O)/C(=C/c1ccc(Cl)cc1Cl)NC(=O)c1ccco1`, 20.4%; in that of `COc1ccc(NC(=O)COC(=O)CC2CCCC2)cc1Cl`, -1.21%. In the case of `COCc1cc(C)n(CC(=O)N2CCCC2)c(=O)c1C#N` it was 18.9%. `Cc1cc2oc(C(=O)NCc3ccc(S(N)(=O)=O)cc3)c(C)c2cc1C`: the “hERG current change (%, negative = inhibition) at 10uM” value is 12.4%.

With `C=CCn1c(O)c(N=Nc2ccccc2)c2ccccc21`, the “hERG current change (%, negative = inhibition) at 10uM” value came to 0.0231%. `CCC(C)NC(=O)c1ccc2c(SCC(=O)O)c3c(nc2c1)CCCC3` (centres unmarked): the “hERG current change (%, negative = inhibition) at 10uM” value was -19.3%. On to `O=C(NNS(=O)(=O)c1ccccc1Cl)c1nn(-c2ccc(F)cc2)ccc1=O`, for which the “hERG current change (%, negative = inhibition) at 10uM” value turned out to be 16.5%. Regarding `CC(C)C(NC(=O)CNC(=O)OC(C)(C)C)C(=O)NCc1ccccc1` (stereo not drawn) (Boc-Gly-[ξV]-NHBn), the “hERG current change (%, negative = inhibition) at 10uM” value was -4.83%. In the case of `CC(=O)c1ccc(-n2c(CCC(=O)O)ccc2-c2ccc(C)cc2)cc1` it was -3.05%. Turning to `C/C(N)=C(/C#N)C(=O)CSc1nnnn1-c1ccccc1`, the “hERG current change (%, negative = inhibition) at 10uM” value was 2.15%.

Regarding `Cn1c(CSCc2ccc(Cl)c(Cl)c2)nnc1SCC(=O)Nc1nccs1`, the “hERG current change (%, negative = inhibition) at 10uM” value came out at 3.77%. For `O=C(Nc1c2ccccc2nc2ccccc12)C(Cl)(Cl)Cl` the value was -5.92%; for `Cc1nc2ccc(Cl)cc2c(-c2ccccc2F)c1CC(=O)O`, 0.288%. For `COCCn1c(=S)[nH]c2cc(C(=O)NCCc3ccc(OC)c(OC)c3)ccc2c1=O`, the “hERG current change (%, negative = inhibition) at 10uM” value is on record as -4.04%.

With `COc1ccccc1CCNC(=O)Cn1ccc2cc(S(=O)(=O)N3CCC(C)CC3)ccc21`, the “hERG current change (%, negative = inhibition) at 10uM” value was determined as 15.7%.

Values taken from article PMC4336329 (PLoS ONE, 2015).
